Assay results published in PubChem BioAssay AID2708 (National Center for Advancing Translational Sciences (NCATS), 2010).
The inconclusive results got no clear call from the source; some entries with a clear call stand among them for comparison. A potency beside an inconclusive call is a rough fit, not a confirmed value. Active and inactive are the calls of the source. Calls come from the whole dose curve; as a rule, active = well fitted inhibition curve with a large enough effect; inconclusive = small, poorly fitted or top-dose-only effect; inactive = no such curve, though single readings can be large or run the other way.

Molecular target: ATP-dependent DNA helicase Q1 (Homo sapiens) (UniProt P46063)
Assay: Confirmation qHTS Assay for Inhibitors of RecQ-Like Dna Helicase 1 (RECQ1); note: nearly all actives have a fitted effect of over 45% in size
Conditions: RECQ1 helicase DNA unwinding, fluorescence; series mostly up to 229 µM
Summary of the method: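 RECQ1T1 50 nM; forked duplex (20 bp + 30-nt ss tails) 200 nM, ATP 2 mM final; pH 8.0, 2 mM MgCl2, 2.5 ug/ml poly(dI-dC); 15 min compound preincubation; discontinuous kinetic read over 2 h at RT.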
Potency is the fitted concentration of half-maximal effect; tags give direction and shape of the fitted curve.

Sequence of UniProt P46063 (P46063 whole entry, looked up): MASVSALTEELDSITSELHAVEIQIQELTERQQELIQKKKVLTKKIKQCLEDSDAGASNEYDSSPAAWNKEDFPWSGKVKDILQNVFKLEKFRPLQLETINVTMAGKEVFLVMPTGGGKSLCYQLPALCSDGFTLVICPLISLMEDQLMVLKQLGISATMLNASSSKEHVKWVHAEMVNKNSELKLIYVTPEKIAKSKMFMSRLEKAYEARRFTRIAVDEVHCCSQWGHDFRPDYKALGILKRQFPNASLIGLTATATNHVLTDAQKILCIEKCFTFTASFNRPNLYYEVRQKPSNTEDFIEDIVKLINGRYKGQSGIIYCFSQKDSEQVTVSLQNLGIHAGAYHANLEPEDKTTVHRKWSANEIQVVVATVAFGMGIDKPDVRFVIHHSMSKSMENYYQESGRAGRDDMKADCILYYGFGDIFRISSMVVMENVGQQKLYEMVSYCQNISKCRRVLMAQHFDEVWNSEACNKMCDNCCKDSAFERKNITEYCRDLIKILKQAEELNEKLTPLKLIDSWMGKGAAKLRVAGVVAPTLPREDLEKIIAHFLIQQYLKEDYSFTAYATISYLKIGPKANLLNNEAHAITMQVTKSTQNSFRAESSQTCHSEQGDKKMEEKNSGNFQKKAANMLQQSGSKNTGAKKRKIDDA

Potency, inconclusive:
O=C1NC(=S)SC1=C1CCCC1 56.2 µM [inhibitor, partial curve, poor fit]
CCOC(=O)/C(=C/C=C1\Sc2cc(OCC)c(OCC)cc2N1CC)C(C)=O 56.2 µM [inhibitor, partial curve, poor fit]
Cc1ccc(C(=O)OCC(=O)NCc2ccco2)s1 50.1 µM [inhibitor, partial curve]
CCOc1cc(/C=C(/NC(C)=O)C(=O)O)cc(Cl)c1OCc1cccc(Br)c1 141 µM [inhibitor, single point]
Cc1ccc(OCC(=O)N/N=C/C=C/c2ccco2)cc1 50.1 µM [inhibitor, partial curve]
O=c1oc2c(O)c(O)cc3c(=O)oc4c(O)c(O)cc1c4c23 0.224 µM [inhibitor, full curve, poor fit]
C=C(c1ccc(C(=O)O)cc1)c1cc2c(cc1C)C(C)(C)CCC2(C)C 45.7 µM [inhibitor, single point]
Cc1c(O)ccc(/C=N/Nc2nc(-c3cccnc3)nc3ccccc23)c1O 50.1 µM [inhibitor, partial curve]
C=C1c2cccc(O)c2C(O)=C2C(=O)[C@]3(O)C(O)=C(C(N)=O)C(=O)[C@@H](N(C)C)[C@@H]3[C@@H](O)[C@H]12 89.1 µM [inhibitor, single point]
CCC(C(=O)Nc1ccccc1OC)n1c(C(=O)OC)cc2ccsc21 (stereo not given) 25.1 µM [inhibitor, full curve]
Cc1ccc(N=C2NC(=O)/C(=C/C=C/c3ccco3)S2)cc1 89.1 µM [inhibitor, single point]
Cc1ccc(Cn2c(=S)[nH]c3ccc(N4CCOCC4)cc3c2=O)o1 89.1 µM [inhibitor, single point]
Cc1cc(/C=N/Nc2ccc([N+](=O)[O-])cn2)c(C)n1-c1ccc(C(=O)O)cc1 89.1 µM [inhibitor, partial curve]
O=C(O)CCC(=O)Nc1nc2nccc(-c3ccccc3)n2n1 141 µM [inhibitor, single point]
Cc1ccc(-c2csc(NC(=O)/C=C/c3ccco3)c2C(=O)O)cc1 89.1 µM [inhibitor, single point]
O=C(Cn1nc(C(=O)O)c2ccccc2c1=O)Nc1ccc2c(c1)C(=O)c1ccccc1C2=O 28.2 µM [inhibitor, partial curve]
C=C1c2cccc(O)c2C(O)=C2C(=O)[C@]3(O)C(O)=C(C(N)=O)C(=O)C(N(C)C)C3C(O)C12 (stereo not given in full) 10 µM [inhibitor, full curve, poor fit]
Cc1cccc(N2CCN(S(=O)(=O)c3ccc4c(c3)CCN4C(=O)CCC(=O)O)CC2C)c1 (stereo not given) 126 µM [inhibitor, single point]

Potency, inactive:
O=C(O)CC(CCc1ccccc1)OC1OC(CO)C(O)C(O)C1O (stereo not given)
C=C1c2c(Cl)ccc(O)c2C(O)=C2C(=O)[C@]3(O)C(O)=C(C(N)=O)C(=O)C(N(C)C)C3C(O)C12 (stereo not given in full)
O=C(O)c1ccc(CN2C(=O)CSC2=S)cc1
Cc1[nH][nH]c(=O)c1C(c1ccc(-c2ccc(C(=O)O)cc2)o1)c1c(C)[nH][nH]c1=O
CCOC(=O)c1ccc(CC(=O)c2ccc(O)c(O)c2O)o1
COCCn1c(=NC(=O)c2ccc(S(=O)(=O)N3CCc4ccccc4C3)cc2)sc2cc(OC)ccc21
CN(C)S(=O)(=O)c1ccc2c(c1)nc(CCC(=O)O)n2C
COCCN1C(=O)C(=O)/C(=C(/O)c2ccc(S(=O)(=O)N3CCOCC3)cc2)C1c1cccc(O)c1 (stereo not given)
O=C(CNC(=O)c1ccc(S(=O)(=O)N2CCCC2)cc1)N/N=C/c1ccc(Cl)cc1Cl

Potency, active:
O=C(NC1CC1)c1cc(-c2ccco2)nc2ccccc12 20 µM
COc1cc(/C=C2\SC(=S)N(NC(=O)c3ccncc3)C2=O)ccc1O 50.1 µM
O=C(Nc1cccc(S(=O)(=O)NC2=NCCC2)c1)c1cc(-c2ccco2)nc2ccccc12 14.1 µM
